One block for each binder: values may come before it.
Assays:
Assay in all cases: two-hybrid
two-hybrid = biological target: the molecule itself
[1] = biological target: T1, importin-α Srp1, yeast two-hybrid fusion (S. cerevisiae, UniProt Q02821 1-542)
T1 sequence (looked up): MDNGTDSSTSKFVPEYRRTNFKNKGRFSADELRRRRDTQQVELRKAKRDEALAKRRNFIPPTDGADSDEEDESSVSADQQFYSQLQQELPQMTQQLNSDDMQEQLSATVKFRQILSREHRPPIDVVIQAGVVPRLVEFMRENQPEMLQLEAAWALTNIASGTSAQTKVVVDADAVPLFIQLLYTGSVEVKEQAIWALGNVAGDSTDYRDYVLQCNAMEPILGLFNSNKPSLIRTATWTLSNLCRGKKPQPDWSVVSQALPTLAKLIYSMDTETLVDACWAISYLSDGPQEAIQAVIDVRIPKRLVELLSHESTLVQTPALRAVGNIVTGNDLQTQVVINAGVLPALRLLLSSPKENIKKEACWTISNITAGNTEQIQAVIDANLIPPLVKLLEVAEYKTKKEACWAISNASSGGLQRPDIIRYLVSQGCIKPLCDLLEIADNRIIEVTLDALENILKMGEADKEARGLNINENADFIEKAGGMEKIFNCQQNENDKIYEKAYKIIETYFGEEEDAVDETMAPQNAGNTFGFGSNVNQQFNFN

[2] = biological target: T2, She3, yeast two-hybrid fusion (S. cerevisiae, UniProt P38272 1-425)
T2 sequence (looked up): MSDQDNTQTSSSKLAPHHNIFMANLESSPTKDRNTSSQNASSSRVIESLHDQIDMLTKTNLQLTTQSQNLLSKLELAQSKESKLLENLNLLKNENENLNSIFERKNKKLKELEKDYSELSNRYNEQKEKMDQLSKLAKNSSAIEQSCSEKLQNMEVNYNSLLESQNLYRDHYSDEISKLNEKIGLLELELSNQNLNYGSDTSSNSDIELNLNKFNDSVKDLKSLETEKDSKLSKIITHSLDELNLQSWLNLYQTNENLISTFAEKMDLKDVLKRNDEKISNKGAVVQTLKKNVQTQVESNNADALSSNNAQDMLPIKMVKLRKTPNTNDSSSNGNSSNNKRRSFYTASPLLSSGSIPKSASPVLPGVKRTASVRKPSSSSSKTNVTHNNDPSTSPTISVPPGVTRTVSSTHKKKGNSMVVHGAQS

[3] = biological target: She2 (wild type), yeast two-hybrid fusion (S. cerevisiae, UniProt P36068)

B1: She2 T109A, yeast two-hybrid fusion (natural protein)
chain: not shown
fold reduction in β-galactosidase activity against wild-type She2–She2 (two-hybrid): 3 fold

fold decrease in interaction against She2 WT or She2 T109A [1]: 6 fold | fold decrease of the She2–She3 complex against wild-type She2 [2]: 2 fold | fold decrease in interaction against wild-type She2–She2 [3]: ~20 fold
B2: She2 T109D, yeast two-hybrid fusion (natural protein)
chain: not shown
fold decrease in interaction against wild-type She2–She2 (two-hybrid): ~20 fold
